# According to PubChem BioAssay AID1240 (Sanford-Burnham Center for Chemical Genomics, 2008):
# Among all 50,000 compounds or so, about 800 (1.6%) showed an effect of 50% or more. This is one part of the list.
# Target: Bcl-2-like protein 10 (Homo sapiens) (UniProt Q9HD36)
# Assay: TR3 peptide-Bcl-B binding displacers, biochemical primary FP assay, phenotype converters (AID 1240);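 further: 0% = Bcl-B with tracer peptide and DMSO and 100% = tracer peptide lacking Bcl-B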
# Conditions: GST-Bcl-B / FITC-TR3 peptide fluorescence polarization; stronger effect = higher value; compound at 3.75 mg/L
# UniProt Q9HD36, sequence (Q9HD36 whole entry, looked up): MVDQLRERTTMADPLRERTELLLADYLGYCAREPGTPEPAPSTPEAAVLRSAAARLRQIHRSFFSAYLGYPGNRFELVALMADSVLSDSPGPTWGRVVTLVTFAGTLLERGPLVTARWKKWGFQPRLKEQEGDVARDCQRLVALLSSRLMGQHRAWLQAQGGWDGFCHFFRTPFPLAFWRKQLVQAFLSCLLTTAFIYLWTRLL
row,Compound,displacement [%]
1,COc1ccc(NC(=O)CCC(C(C)=O)[N+](=O)[O-])cc1 (configuration not stated),-4.2
2,COc1ccccc1C(=O)N1CCN(c2ccc(F)cc2)CC1,-13.4
3,CC(=O)Nc1ccc(S(=O)(=O)Nc2cccc(C(=O)Nc3ccccc3C(=O)O)c2)cc1,-15.8
4,COc1ccccc1N1C(=O)C2C(C1=O)C2(c1ccccc1)c1ccccc1 (configuration not stated),-5.5
5,O=c1[nH]c(=S)n(-c2cccc(Cl)c2)c(O)c1/C=C1/C=CC=N1,45.4
6,O=C1C(Nc2ccccc2)=CC(c2ccc(F)cc2)N1c1ccccc1 (configuration not stated),0.4
7,Fc1cnc(Nc2ccccc2)nc1Nc1ccccc1,2.7
8,CC1=C(C(=O)OCc2ccccc2)C(c2cccc(Cl)c2)C2=C(CCCC2=O)N1 (configuration not stated),5.9
9,CN(C)c1ccc(NC(=O)c2cc(-c3ccccc3Cl)nc3ccccc23)cc1,-0.2
10,CCCOc1ccc(/C=N/N2CCN(Cc3ccc(C)cc3)CC2)cc1,6.6
11,COc1ccc(NC(=O)C(=O)N/N=C/c2cccc(OC)c2OC)cc1,2.5
12,COc1cc(NC(=O)c2ccco2)cc(OC)c1,4.7
13,CCCC(=O)c1ccc(N2CCOCC2)c(F)c1,1.8
14,CCN(CC)CCN1C(=O)C(O)=C(C(=O)/C=C/c2ccccc2)C1c1ccccc1 (configuration not stated),-14.1
15,Cc1ccc(/C=C(\C#N)c2nc(-c3cc4cc(Br)ccc4oc3=O)cs2)o1,-5
16,CNC(=S)N(C)/N=C(C)\C=N\N(C)C(=S)NC,-1.9
17,CC(NC(=O)C12CC3(C)CC(C)(CC(C)(C3)C1)C2)C(=O)Nc1ccc(F)cc1F (configuration not stated),-10
18,CCOC(=O)c1c(NC(=S)Nc2ccc(OC)cc2)sc2c1CCC2,10
19,CCOC(=O)C1=C(C)N=c2s/c(=C\c3cc(Cl)c(O)c(OC)c3)c(=O)n2C1c1ccccc1 (configuration not stated),-44.5
20,c1ccc2c(OCCCN3CCOCC3)cccc2c1,2.6
21,CCOc1cc(/C=N/n2nnnc2N)ccc1OCc1c(C)no[n+]1[O-],-4.5
22,CCOC(=O)C1C(=O)NCC2CCCC21 (configuration not stated),4.6

row,Compound,displacement [%]
1,COC(=O)CN(c1ccc(OC)cc1)S(=O)(=O)c1ccc(C)cc1,1.2
2,CSCCC(NC(=O)/C(=C\c1ccccc1)NC(=O)c1ccco1)C(=O)O (configuration not stated),-7.2
3,O=C(Nc1cc(Cl)ccc1C(=O)O)c1cccs1,2
4,Cc1cccc(-c2noc(C(c3ccccc3)c3ccccc3)n2)c1,11.9
5,CCOc1cccc(C(=O)Nc2nc(-c3ccc(CC)cc3)cs2)c1,-5.5
6,COC(=O)C1=C(C)NC(=S)NC1c1ccc(C(C)C)cc1 (configuration not stated),6.3
7,N#C/C(=C\C=C\c1ccccc1)C(=O)NCC1CCCO1 (configuration not stated),0.4
8,CCN(C(=O)N1CCOCC1)c1ccccc1,-8.6
9,CC1=C(C(=O)Nc2ccc(C)cc2)C(c2ccc(C)cc2)NC(=S)N1 (configuration not stated),1.4
10,O=C1c2ccccc2C(=O)c2c(C#Cc3ccccc3)cccc21,10.5
11,O=C(Nc1cc(Cl)ccc1O)c1cnn2c(C(F)(F)F)cc(-c3cccs3)nc12,3.7
12,O=C(O)c1ccc(/C=N/Nc2nncc(=O)[nH]2)cc1,-10.2
13,Cc1ccc(S(=O)(=O)N(Cc2ccco2)CC(O)Cn2c3ccccc3c3ccccc32)cc1 (configuration not stated),5.9
14,CN(C)c1ccc(NS(=O)(=O)c2ccc(N3C(=O)c4ccccc4C3=O)cc2)cc1,-8.7
15,COc1ccccc1-c1coc2cc(OC(=O)c3ccccc3C)ccc2c1=O,1.9
16,COC(=O)COc1ccc(/C=N/NC(=O)CSc2nc(C)cc(C)n2)cc1,-5
17,O=C(Cc1ccc(Br)cc1)Nc1ccccc1,8.3
18,COc1ccc(CCNC(=O)c2ccccc2[N+](=O)[O-])cc1OC,-4
19,Cc1[nH]n(-c2ccccc2)c(=O)c1/C=C1/C=Nc2ccccc21,16.6
20,O=C(NC[n+]1ccccc1)c1ccc(Cl)cc1,0.7
21,CN1CCN(C(=O)CN2C(=O)/C(=C/c3cccc(Br)c3)SC2=S)CC1,7.8
22,COc1ccc(CCNc2cc(N3CCN(S(=O)(=O)N(C)C)CC3)ccc2[N+](=O)[O-])cc1OC,18

row,Compound,displacement [%]
1,Cc1cc(C(=O)NCCC(c2ccccc2)c2ccccc2)ccc1[N+](=O)[O-],-9.9
2,O=C1c2ccccc2C(=O)N1/N=C/c1ccc(O)cc1O,-18.8
3,CC(=O)OC1CC(C)(C)N([O])C(C)(C)C1,5.8
4,Cc1cc(N2C(=O)NC(=O)/C(=C\c3cccc(F)c3)C2=O)ccc1Br,-2.3
5,C=CCN1C(=O)/C(=C\c2ccc(Br)c([N+](=O)[O-])c2)SC1=S,32.1
6,COc1ccc(C(O)c2coc3ccc(O)c(CN(C)C)c23)cc1 (configuration not stated),8.7
7,O=C(N/C(=C/c1ccc(-c2cccc(C(F)(F)F)c2)o1)C(=O)N1CCOCC1)c1ccc(Cl)cc1,-4.4
8,CC(C)C(=O)N1CCN(c2ccc(F)cc2)CC1,0.4
9,CCOc1ccc(N(CC(=O)Nc2ccc(Cl)cc2)S(C)(=O)=O)cc1,1.5
10,O=C(Nc1ccccc1)c1cccc(S(=O)(=O)Nc2ccccn2)c1,-12
11,Cc1ccc(C)c(NC(=O)C2CC(O)CN2C(=O)OCc2ccccc2)c1 (configuration not stated),6.7
12,C/C(Cn1nnc([N+](=O)[O-])n1)=N\NC(=O)c1ccccc1Cl,-6.4
13,CCOC(=O)COc1ccc(-c2nc3sc4c(c3c(=O)[nH]2)CCCC4)cc1OC,-114
14,O=C(CSc1ccccn1)OCC(=O)c1ccc(Br)cc1,10.3
15,CC(=O)NS(=O)(=O)c1ccc(NS(=O)(=O)c2ccc(C)cc2)cc1,14.6
16,CC1=C(C(=O)OCCCc2ccccc2)C(c2ccccc2F)CC(=O)N1 (configuration not stated),-5.4
17,CC(C)c1ccc(NC(=O)c2cnn(-c3ccccc3)c2NC(=O)c2ccco2)cc1,-6.4
18,O=C1NC(=O)N(c2ccc(Br)cc2)C(=O)/C1=C/c1cccc([N+](=O)[O-])c1,7.1
19,COc1cc(NC(=O)c2ccc(C)cc2)cc(OC)c1,-8.9
20,O=C(/C=C/c1ccccc1)NCc1ccc2c(c1)OCO2,0
21,C/C(=C\C(=O)c1ccc(Br)cc1)Nc1ccccc1F,-5.1
22,C/C(=N\NC(N)=S)C1=CC(C)(C)CCC1,-18

row,Compound,displacement [%]
1,O=C(NC1CCCCC1)C12CC3CCC(CC(C3)C1)C2,3.8
2,COc1ccc(N(CC(=O)NC(C)(C)C)S(C)(=O)=O)cc1Cl,-6.9
3,CCCOc1ccc(C2NC(=O)N(C)C(C)=C2C(=O)OCC)cc1OC (configuration not stated),-6.9
4,Cc1cc(C)c(S(=O)(=O)c2ccccc2C(C)(C)C)c(C)c1,12.3
5,COc1ccc(N(C(C)C(=O)N/N=C/c2cc(C)n(-c3ccccc3C(F)(F)F)c2C)S(C)(=O)=O)cc1 (configuration not stated),-40.1
6,COc1ccc(CCNc2cc(N3CCN(C(=O)c4ccc(Cl)cc4)CC3)ccc2[N+](=O)[O-])cc1OC,10.7
7,CC1CC(Nc2ccccc2)c2ccccc2N1C(=O)c1ccc(Cl)cc1Cl (configuration not stated),8.9
8,COc1cccc(N(CC(=O)Nc2ccccc2Cl)S(=O)(=O)c2ccccc2)c1,-2.7
9,O=C(Nc1ncc(Br)cc1Br)c1cccc2ccccc12,-0.9
10,CCOc1ccc(C2C(C(C)=O)=C(O)C(=O)N2CCN(C)C)cc1 (configuration not stated),1.9
11,O=C(NCCCO)c1cccc([N+](=O)[O-])c1,0.3
12,COc1ccc(NC2OC(=O)c3c2ccc(OC)c3OC)cc1 (configuration not stated),8.6
13,COc1cccc(NC(=O)C2CC(=O)N(c3ccc(Cl)cc3)C2)c1 (configuration not stated),8
14,COc1ccc(Br)cc1/C=C/C(=O)Nc1cc(C)ccn1,-46.5
15,Cc1ccc(C(C)C)c(OCC(=O)Nc2ccc3c(c2)OCO3)c1,9.8
16,COC(=O)CCC(=O)Nc1cc(C)ccc1C,3.4
17,Cc1cc(=O)[nH]c(SCC(=O)Nc2ccc(Cl)cc2)n1,-10.6
18,CCOc1ccccc1N(CC(=O)Nc1cc(OC)ccc1OC)S(=O)(=O)c1ccccc1,5.4
19,COc1ccc(N(CC(N)=O)S(=O)(=O)c2ccc(C)cc2)cc1,5
20,CCC(C)(C)C1CCc2c(sc(NC(C)=O)c2C(N)=O)C1 (configuration not stated),7.8
21,Cc1ccc(Cl)cc1NC(=O)CSc1nc2ccc([N+](=O)[O-])cc2s1,2.5
22,O=C(NCCN1CCN(C(=O)c2ccc(Cl)cc2Cl)CC1)c1ccc(Cl)cc1Cl,10.3

row,Compound,displacement [%]
1,O=C(O)C1C2C=CC(O2)C1C(=O)Nc1ccc(I)cc1 (configuration not stated),9.6
2,CN1C(=O)/C(=C\c2nc3ccccc3c(=O)n2-c2ccccc2)c2cc(Br)ccc21,-5.9
3,COc1ccc(CCNC(=O)C2CC(=O)N(c3ccc(F)cc3)C2)cc1OC (configuration not stated),-0.6
4,COC(=O)C1=C(C)N=c2s/c(=C\c3cccc(Br)c3)c(=O)n2C1c1ccccc1 (configuration not stated),6.9
5,COc1ccccc1N1CCN(C(=O)C(c2ccccc2)c2ccccc2)CC1,-6.1
6,O=C(O)c1ccccc1C(=O)Nc1ncc(S(=O)(=O)c2ccc([N+](=O)[O-])cc2)s1,-3.8
7,CN(C)/C=C/C(=O)c1nnn(C2CCCCC2)c1NC1CCCCC1,2.2
8,CCN(CC)CCCNC(=O)c1cc(C(=O)OC)cc([N+](=O)[O-])c1,-9.6
9,COc1ccc(C2=NN(C(=O)c3cccc([N+](=O)[O-])c3)C(c3cccc([N+](=O)[O-])c3)C2)cc1 (configuration not stated),-3.1
10,O=C(Nc1ccc2nn(-c3cccc([N+](=O)[O-])c3)nc2c1)c1cccs1,15.9
11,CC1=CC(C)(C)N(C(=O)C(C)N2C(=O)c3ccccc3C2=O)c2cc(C)c(C)cc21 (configuration not stated),-2.1
12,COc1ccc(N(CC(=O)Nc2cccc3ccccc23)S(C)(=O)=O)c(OC)c1,2.2
13,COc1cccc(CNC2CCCc3ccccc32)c1OC (configuration not stated),5.1
14,Cc1nnsc1C(=O)NC(C)C12CC3CC(CC(C3)C1)C2 (configuration not stated),0.6
15,C=CCOc1ccc(/C=C/C(=O)c2ccc(C)cc2)cc1OC,-15.3
16,COCCN1C(=O)C(=O)/C(=C(/O)c2ccccc2)C1c1ccccc1[N+](=O)[O-] (configuration not stated),-1.1
17,Oc1[nH]c2ccc(Cl)cc2c1N=Nc1ccnc2cc(Cl)ccc12,1.2
18,O=C(COc1ccc(Br)cc1)Nc1ccc(Cl)cn1,22
19,OCc1cccc(N=Cc2ccc(C=Nc3cccc(CO)c3)cc2)c1,-4.7
